# Laboratory results: the supplement of paper PMC10369915
# The list shows a part of the results. No stated cut-off is given here; in the data, active = 3.2 or more and inactive = the rest. The signal is at background level for most entries.
# B1: ZNF830_Y159_S154T (peptide)
# chain: TLLPDYEDEEE
# B2: ZNF236_Y644 (peptide)
# chain: QFFQSYFNNNF
# B3: EGFR_opt_no-pY_2015 (peptide)
# chain: GDEEDYYEIPG
# B4: ZNF445_Y428 (peptide)
# chain: MSSHHYDYKKY
# B5: SYKtide_2014 (peptide)
# chain: AEDEDYESVGA
# B6: AACS_Y117 (peptide)
# chain: DRVALYIAREG
# B7: ZNF569_Y33 (peptide)
# chain: AQRKLYRNVML
# B8: ZPLD1_Y198 (peptide)
# chain: YNDSTYNQQLI
# B9: ZNF543_Y283 (peptide)
# chain: SGEKPYKCSEC
# B10: A2M_Y708_R704H (peptide)
# chain: LHVGFYESDVM
# B11: ZMYM2_Y1033 (peptide)
# chain: VFGEEYEEQPR
# B12: ZNF830_Y159 (peptide)
# chain: SLLPDYEDEEE
# B13: NRTKtide_2018 (peptide)
# chain: GDEAIYATVAG
# B14: PYKtide_no-pT_2014 (peptide)
# chain: AHPIIYTIIEA
# B15: ZNF445_Y433 (peptide)
# chain: YDYKKYGKGLR
# B16: ZNF569_Y33_Q29E (peptide)
# chain: AERKLYRNVML
# B17: ZNF283_Y627_R629H (peptide)
# chain: TGEKLYQHKEF
# B18: ZNF283_Y627 (peptide)
# chain: TGEKLYQRKEF
# B19: ZNF281_Y531 (peptide)
# chain: QISSNYDDAMQ
# B20: AASDH_Y870_T865A (peptide)
# chain: ATGLIYIGSHD
# B21: ZNF445_Y433_Y428C_YF (peptide)
# chain: CDFKKYGKGLR
# B22: ABCC1_Y1508_S1512L (peptide)
# chain: GEIQEYGAPLD
# B23: A2M_Y817 (peptide)
# chain: ATVLNYLPKCI
# B24: AACS_Y117_I118V (peptide)
# chain: DRVALYVAREG
# B25: ZNF806_Y33_A28S (peptide)
# chain: SQINLYQDVML
# B26: FEStide_E_2014 (peptide)
# chain: ADEEEYEIIAA
# B27: ZMPSTE24_Y253_P248L (peptide)
# chain: LLTKVYVVEGS
# B28: ZNF100_Y6 (peptide)
# chain: MDDPRYGMCPL
# B29: FGR_opt_2018 (peptide)
# chain: GEDDVYDSVPG
# B30: ZPLD1_Y198_T197A_YF (peptide)
# chain: FNDSAYNQQLI
# B31: RTKtide_2018 (peptide)
# chain: GEDPIYVTLEG
# B32: AASDH_Y870 (peptide)
# chain: TTGLIYIGSHD
# B33: ZNF80_Y200_R201H (peptide)
# chain: GKTFTYHSVFF
# B34: FEStide_no-pY_2014 (peptide)
# chain: ADEEYYEIIAA
# B35: AASS_Y188 (peptide)
# chain: GMAHNYRNSSQ
# B36: AASS_Y188_S191R (peptide)
# chain: GMAHNYRNRSQ
# B37: ZNF445_Y428_Y428C (peptide)
# chain: MSSHHCDYKKY
# Target: SHP2 C-SH2 domain E139D
# Test: enrichment score (SH2-bound / input frequency) (ratio); bacterial display of known human phosphotyrosine sites (pTyr-Var adds point mutants) read by sequencing; higher = stronger binding; tyrosines were phosphorylated by kinases first
# Conditions: peptide library: pTyr-Var
# 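Further: displayed peptides selected on beads carrying the immobilized SH2 domain, with library peptides lacking any tyrosine serving as negative controls.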
row,Binder,enrichment score
1,B1,inactive: 0.553
2,B2,inactive: 1.53
3,B3,inactive: 0.715
4,B4,inactive: 0.618
5,B5,inactive: 0.793
6,B6,inactive: 0.872
7,B7,inactive: 0.919
8,B8,inactive: 0.614
9,B9,inactive: 0.458
10,B10,inactive: 1.92
11,B11,inactive: 0.822
12,B12,inactive: 0.414
13,B13,inactive: 0.606
14,B14,inactive: 1.84
15,B15,inactive: 1.35
16,B16,inactive: 1.13
17,B17,inactive: 0.841
18,B18,inactive: 0.606
19,B19,inactive: 0.794

row,Binder,enrichment score
1,B20,inactive: 1.03
2,B21,inactive: 0.886
3,B22,inactive: 0.7
4,B23,inactive: 1.19
5,B24,inactive: 0.859
6,B25,inactive: 0.966
7,B26,inactive: 0.575
8,B27,inactive: 1.24
9,B28,inactive: 0.711
10,B29,inactive: 0.451
11,B30,inactive: 0.674
12,B31,inactive: 0.755
13,B32,inactive: 0.83
14,B33,inactive: 1.33
15,B34,inactive: 1.08
16,B35,inactive: 0.598
17,B36,inactive: 0.284
18,B37,inactive: 2.31

# Target: SHP2 C-SH2 domain wild-type
# Test: as above
# Conditions: peptide library: pTyr-Var
row,Binder,enrichment score
1,B1,inactive: 0.532
2,B2,inactive: 1.28
3,B3,inactive: 1.01
4,B4,inactive: 0.537
5,B5,inactive: 0.508
6,B6,inactive: 0.807
7,B7,inactive: 0.615
8,B8,inactive: 0.409
9,B9,inactive: 0.472
10,B10,inactive: 1.19
11,B11,inactive: 0.565
12,B12,inactive: 0.557
13,B13,inactive: 0.641
14,B14,inactive: 2.22
15,B15,inactive: 1.42
16,B16,inactive: 0.803
17,B17,inactive: 0.83
18,B18,inactive: 0.593
19,B19,inactive: 0.7

row,Binder,enrichment score
1,B20,inactive: 1.07
2,B21,inactive: 1.07
3,B22,inactive: 0.656
4,B23,inactive: 1.37
5,B24,inactive: 0.816
6,B25,inactive: 0.884
7,B26,inactive: 0.792
8,B27,inactive: 1.04
9,B28,inactive: 0.882
10,B29,inactive: 0.398
11,B30,inactive: 0.697
12,B31,inactive: 0.667
13,B32,inactive: 0.964
14,B33,inactive: 1.63
15,B34,inactive: 0.996
16,B35,inactive: 0.466
17,B36,inactive: 0.221
18,B37,inactive: 1.68

# Target: SHP2 N-SH2 domain L43F
# Test: as above
# Conditions: peptide library: pTyr-Var
row,Binder,enrichment score
1,B1,inactive: 0.567
2,B2,inactive: 1.54
3,B3,inactive: 1.15
4,B4,inactive: 0.488
5,B5,inactive: 0.472
6,B6,inactive: 0.82
7,B7,inactive: 0.789
8,B8,inactive: 0.488
9,B9,inactive: 0.598
10,B10,inactive: 1.19
11,B11,inactive: 0.599
12,B12,inactive: 0.484
13,B13,inactive: 0.576
14,B14,active: 4.46
15,B15,inactive: 1.26
16,B16,inactive: 0.985
17,B17,inactive: 0.77
18,B18,inactive: 0.59
19,B19,inactive: 0.666

row,Binder,enrichment score
1,B20,inactive: 1.13
2,B21,inactive: 0.834
3,B22,inactive: 0.692
4,B23,inactive: 0.893
5,B24,inactive: 0.739
6,B25,inactive: 0.86
7,B26,inactive: 0.665
8,B27,inactive: 0.906
9,B28,inactive: 0.823
10,B29,inactive: 0.417
11,B30,inactive: 0.773
12,B31,inactive: 0.754
13,B32,inactive: 0.958
14,B33,inactive: 1.53
15,B34,inactive: 0.929
16,B35,inactive: 0.498
17,B36,inactive: 0.315
18,B37,inactive: 1.83

# Target: SHP2 N-SH2 domain T42A
# Test: as above
# Conditions: peptide library: pTyr-Var
row,Binder,enrichment score
1,B1,inactive: 0.493
2,B2,inactive: 1.43
3,B3,inactive: 0.811
4,B4,inactive: 0.573
5,B5,inactive: 0.579
6,B6,inactive: 0.68
7,B7,inactive: 0.649
8,B8,inactive: 0.385
9,B9,inactive: 0.626
10,B10,inactive: 1.48
11,B11,inactive: 0.626
12,B12,inactive: 0.373
13,B13,inactive: 0.604
14,B14,active: 7.92
15,B15,inactive: 1.39
16,B16,inactive: 0.706
17,B17,inactive: 0.616
18,B18,inactive: 0.65
19,B19,inactive: 0.724

row,Binder,enrichment score
1,B20,inactive: 1.03
2,B21,inactive: 0.704
3,B22,inactive: 0.57
4,B23,inactive: 1.19
5,B24,inactive: 0.487
6,B25,inactive: 0.862
7,B26,inactive: 0.518
8,B27,inactive: 0.907
9,B28,inactive: 0.697
10,B29,inactive: 0.452
11,B30,inactive: 0.791
12,B31,inactive: 0.823
13,B32,inactive: 0.972
14,B33,inactive: 2.9
15,B34,inactive: 1.06
16,B35,inactive: 0.529
17,B36,inactive: 0.219
18,B37,inactive: 1.53

# Target: SHP2 N-SH2 domain T52S
# Test: as above
# Conditions: peptide library: pTyr-Var
row,Binder,enrichment score
1,B1,inactive: 0.355
2,B2,inactive: 1.12
3,B3,inactive: 0.563
4,B4,inactive: 0.66
5,B5,inactive: 0.504
6,B6,inactive: 0.816
7,B7,inactive: 0.709
8,B8,inactive: 0.522
9,B9,inactive: 0.685
10,B10,inactive: 1.97
11,B11,inactive: 0.795
12,B12,inactive: 0.481
13,B13,inactive: 0.684
14,B14,active: 4.91
15,B15,inactive: 1.52
16,B16,inactive: 0.894
17,B17,inactive: 0.658
18,B18,inactive: 0.584
19,B19,inactive: 0.596

row,Binder,enrichment score
1,B20,inactive: 1.28
2,B21,inactive: 0.771
3,B22,inactive: 0.497
4,B23,inactive: 0.789
5,B24,inactive: 0.628
6,B25,inactive: 1.04
7,B26,inactive: 0.468
8,B27,inactive: 0.813
9,B28,inactive: 0.557
10,B29,inactive: 0.459
11,B30,inactive: 0.67
12,B31,inactive: 0.824
13,B32,inactive: 1.02
14,B33,inactive: 1.91
15,B34,inactive: 1.25
16,B35,inactive: 0.394
17,B36,inactive: 0.31
18,B37,inactive: 2.09

# Target: SHP2 N-SH2 domain wild-type
# Test: as above
# Conditions: peptide library: pTyr-Var
row,Binder,enrichment score
1,B1,inactive: 0.637
2,B2,inactive: 1.3
3,B3,inactive: 1.01
4,B4,inactive: 0.56
5,B5,inactive: 0.646
6,B6,inactive: 1.02
7,B7,inactive: 0.785
8,B8,inactive: 0.573
9,B9,inactive: 0.456
10,B10,inactive: 1.67
11,B11,inactive: 0.734
12,B12,inactive: 0.644
13,B13,inactive: 0.852
14,B14,inactive: 2.33
15,B15,inactive: 1.22
16,B16,inactive: 0.764
17,B17,inactive: 0.769
18,B18,inactive: 0.629
19,B19,inactive: 0.74

row,Binder,enrichment score
1,B20,inactive: 0.901
2,B21,inactive: 0.997
3,B22,inactive: 0.669
4,B23,inactive: 1.28
5,B24,inactive: 0.931
6,B25,inactive: 1.03
7,B26,inactive: 1.02
8,B27,inactive: 1.2
9,B28,inactive: 0.978
10,B29,inactive: 0.452
11,B30,inactive: 0.916
12,B31,inactive: 0.751
13,B32,inactive: 1.04
14,B33,inactive: 1.62
15,B34,inactive: 0.954
16,B35,inactive: 0.517
17,B36,inactive: 0.268
18,B37,inactive: 1.65
